Data taken from PubChem BioAssay AID938 (National Center for Advancing Translational Sciences (NCATS), 2007).
Screen size: about 73,000 compounds; about 1,800 (2.5%) were called active. Inconclusive means that the source gave no clear call. Such entries were picked first, then a sample of the others. Calls come from the whole dose curve; as a rule, active = well fitted activation curve with a large enough effect; inconclusive = small, poorly fitted or top-dose-only effect; inactive = no such curve, though single readings can be large or run the other way. No potency is given beside an inconclusive call; the fits are too rough.

Assay: qHTS Assay for Agonists of the Thyroid Stimulating Hormone Receptor: Activators of Intracellular cAMP Concentrations in Parental HEK 293; note: nearly all actives have a fitted effect of over 55% in size; for activation: % of control where 0% means no effect
Conditions: parental HEK293 CNG cAMP sensor, membrane potential fluorescence; activation: at 57.1 µM (top of the series) unless noted
Summary of the method: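 Parental HEK 293 cells stably expressing a cAMP-gated CNG channel were loaded with membrane potential dye containing 100 uM RO 20-1724 for 60 min. Compound added for 30 min; depolarization read as fluorescence intensity at 590 nm.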
Potency is the fitted concentration of half-maximal effect; tags give direction and shape of the fitted curve.

Structure (SMILES)	Potency	activation
OC[C@@H]1O[C@@H](n2cnc3c(NC4CCCC4)ncnc32)[C@H](O)[C@H]1O	inconclusive [activator, full curve]	
COc1cccc(-c2ccc3ncnc(Nc4ccccc4)c3c2)c1	active: 20 µM	
N#Cc1nc(COc2cccc(Cl)c2)oc1N1CCN(c2ccccc2)CC1	inconclusive [activator, full curve]	
Clc1ccccc1-c1cncnc1NCCN1CCOCC1	inconclusive [activator, single point]	
CCNC(=O)CCCOc1ccc(Cl)cc1Cl	inconclusive [activator, single point]	
Cc1cc(-c2cccnc2)c(C#N)c(SCC#N)n1	inconclusive [activator, single point]	
Cc1cc2cc(CN3C(=O)c4ccccc4C3=O)ccc2[nH]1	inactive	
Cc1cc(N(C)C)cc(C)[n+]1[O-]	inconclusive [activator, single point]	
CCCCCC(N)=O	inactive	
Nc1c(C(=O)NCc2ccc3c(c2)OCO3)c2nc3ccccc3nc2n1CCCN1CCOCC1	inconclusive [activator, full curve]	
COc1ccc(C2c3c(oc4ccccc4c3=O)C(=O)N2Cc2ccncc2)cc1OC (stereo not given)	inconclusive [activator, single point]	
Cc1cc(C(=O)CN2C(=O)CCC2=O)c(C)n1Cc1ccccc1	inconclusive [activator, partial curve]	
COc1ccc(-c2noc(CSc3nnc(Cc4ccccc4)n3-c3cccc(C)c3)n2)cc1OC	inconclusive [activator, partial curve]	
CCOC(=O)N1CCN(c2ccc(C(=O)c3cccc(F)c3)cc2)CC1	active: 20 µM	
CCCCn1c(=N)n(CC(O)COc2ccccc2)c2ccccc21 (stereo not given)	active: 1.26 µM	
COC(=O)c1c(C)[nH]c(C(=O)CN2CCOCC2)c1C	inconclusive [activator, single point]	
Cn1cc(-c2nc3cnc(Oc4cccc(Cl)c4)nc3n(CCC#N)c2=O)c2ccccc21	inconclusive [activator, single point]	
C/C=C/OC(=O)NC(c1ccccc1)[C@@]1(C(=O)OCC)CCCC1=O (stereo not given in full)	inconclusive [activator, partial curve]	
COc1ccccc1CNc1nc(-c2ccc(C(=O)N(C)C)cc2)nc2ccccc12	inconclusive [activator, full curve, poor fit]	
Cc1sc2nc(SCc3nnc(-c4cccs4)o3)n(C3CCCC3)c(=O)c2c1C	inconclusive [activator, single point]	
COc1cc(NC(=O)C2CCCCN2)ccc1OCC(C)C (stereo not given)	inactive	
CCOC(=O)C(CC)Sc1nc(N)c(NC(=O)c2ccc(OC)c(OC)c2)c(=O)[nH]1 (stereo not given)	inconclusive [activator, single point]	
CC(C)(C)c1ccc(-c2nnc(SCC(=O)O)n2N)cc1	inactive	
COC(=O)[C@@]1(Cc2ccc(F)cc2)[C@H]2c3cc(C(=O)N4CCCC4)n(CCc4ccc(O)c(O)c4)c3C[C@H]2CN1C(=O)c1ccccc1	inconclusive [activator, full curve, poor fit]	

Structure (SMILES)	Potency	activation
O=C(CSc1nnc(Cc2ccccc2)n1C1CCCCC1)N1CCOCC1	inconclusive [activator, single point]	
O=C1[C@H]2[C@H]3[C@H](O)[C@H](O)C/C(=N/OCc4ccccc4)[C@H]3CC[C@@H]2C(=O)N1c1cccc(Oc2ccccc2)c1		inactive: -6.41% [at 11.4 µM]
c1nc(NC2CCNCC2)c2cc(-c3ccoc3)ccc2n1	inconclusive [activator, single point]	
c1cncc(-c2nc3cc(Cc4ccc5oc(-c6cccnc6)nc5c4)ccc3o2)c1	inactive	
CCOC(=O)Cn1cc(C(=O)c2ccco2)c2ccccc21	inconclusive [activator, partial curve]	
CCCOc1ccc(CCN2CCC(=O)NC2=O)cc1C	inconclusive [activator, single point]	
COc1cccc(NC(=O)CNC(C)CCC(C)C)c1 (stereo not given)	inactive	
O=C(NCc1ccco1)C1CCCN(S(=O)(=O)c2ccc(-n3cnnn3)cc2)C1 (stereo not given)	active: 20 µM	
CC1(C)CC(=O)C2=C(C1)Oc1ncn3nc(-c4cccnc4)nc3c1C2c1ccccc1 (stereo not given)	inconclusive [activator, single point]	
Cc1cc(C)n(S(=O)(=O)c2ccc(C(C)(C)C)cc2)n1	inconclusive [activator, partial curve]	
CCCn1c(=O)c(C(=O)NCc2ccccn2)c(O)c2ccccc21	inconclusive [activator, single point]	
Cc1ccc(OCCN2C(=O)c3ccccc3C2=O)c(C)c1	inconclusive [activator, partial curve]	
COC(=O)[C@@]1(Cc2ccc(OC)cc2)[C@H]2c3cc(C(=O)N4CCCC4)n(CCc4ccc(O)c(OC)c4)c3C[C@H]2CN1C(=O)c1ccccc1	inconclusive [activator, single point]	
O=C(CCn1c(=O)sc2ccccc21)NCc1ccc2c(c1)OCO2	inactive	
CCCC(=O)Nc1ccccc1N1CCN(C(=O)C(C)C)CC1	inconclusive [activator, partial curve]	
COc1ccc(C(=O)/C=C\N2CCOCC2)cc1	inactive	
O=C(O)COc1cccc(-c2ocnc2-c2nc(-c3ccccc3)c(-c3ccccc3)o2)c1	inactive	
O=c1cc(-c2ccccc2O)oc2cc(O)cc(O)c12	inactive	
CC(=O)Nc1nc(-c2ccccc2)nc(-c2ccccc2OC(C)=O)n1	inconclusive [activator, partial curve]	
O=c1[nH]n(-c2cccc3cccnc23)c(=O)c2ccccc12	inactive	
COc1ccc(-c2noc(-c3ccccc3C(=O)Nc3cccc(OC)c3)n2)cc1	active: 12.6 µM	
COc1ccc(N(C)S(=O)(=O)c2ccc3c(c2)oc(=O)n3C)cc1	inactive	
O=C(COc1ccccc1O)Nc1ccccc1Cl	inactive	
CC1Cc2ccccc2N1C(=O)COc1nc2ccccc2nc1N1CCOCC1 (stereo not given)	inconclusive [activator, single point]	

Structure (SMILES)	Potency	activation
COc1ccc(C2C3=C(CCCC3=O)Nc3nc(SCc4ccccc4)nn32)cc1OC (stereo not given)	inactive	
N#CCCn1c(=O)c(-c2cc(F)cc(F)c2)nc2cnc(Oc3cccc(Cl)c3)nc21	inactive	
Cc1nc(N2CCN(C)CC2)c2c(C)c(C(=O)Nc3ccc(F)cc3)sc2n1	inconclusive [activator, full curve, poor fit]	
COc1ccc(C(=O)NCCc2nnc(SCc3nc4ccccc4c(=O)[nH]3)n2C)cc1	inconclusive [activator, single point]	
COc1cccc(Nc2ncc3nc(C)c(=O)n(C[C@H]4CCCO4)c3n2)c1	inactive	
C/C=C/c1ccc(OCCCCN2C(=O)NC(C)(C)C2=O)c(OC)c1	inactive	
Cn1c(CSc2nnc(SCc3ccccc3)s2)nc2ccccc21	inconclusive [activator, single point]	
CCOC(=O)c1ccccc1NC(=O)CN(c1ccccc1)S(=O)(=O)N(C)C	inconclusive [activator, partial curve]	
CCCCOc1ccccc1C1C(C(=O)OC)=C(C)N(C)C(C)=C1C(=O)OC	inconclusive [activator, partial curve]	
COCCn1c(=O)c(CCc2ccccc2)nc2cnc(Oc3cccc(Cl)c3)nc21	inactive	
COc1ccc(S(=O)(=O)N2CCN(c3ccccc3OC)CC2)cc1OC	inconclusive [activator, single point]	
COc1nc(Nc2cccc(C)c2)nc(N2CCCCC2)n1	inconclusive [activator, partial curve]	
O=C(C1CCCCC1)N1CCCC(c2nc3c(nnn3Cc3ccccc3)c(=O)[nH]2)C1 (stereo not given)	inconclusive [activator, single point]	
Cc1nc2sc(C(c3ccco3)N3CCC(C)CC3)c(O)n2n1 (stereo not given)	inconclusive [activator, single point]	
Cn1c(Sc2ccc(-c3cccnc3)n2C)ccc1-c1cccnc1		inactive: -12.2% [at 11.4 µM]
Cc1ccc(-c2nnn(CC(=O)N(CC3CCCO3)C(C(=O)NC(C)(C)C)c3ccc(F)cc3)n2)o1 (stereo not given)	inconclusive [activator, partial curve]	
OC(COc1ccc(Cl)cc1)CN1C2=NCCCN2c2ccccc21 (stereo not given)	inconclusive [activator, partial curve]	
C[C@@H]1CC[C@@H]2C(=O)N3[C@@H](CC[C@@H](C)[C@@H]3c3ccc(-c4ccco4)cc3)C(=O)N2[C@H]1c1ccc(-c2ccco2)cc1		inactive: 9.22% [at 11.4 µM]
N#CCCn1c(=O)c(-c2cc(F)cc(F)c2)nc2cnc(N3CCOCC3)nc21	inactive	
Cc1nc(SCC(=O)Nc2ccc(F)cc2)c2oc3ccccc3c2n1	inconclusive [activator, single point]	
O=C(Nc1ccccn1)c1cccc(S(=O)(=O)N2CCOCC2)c1	inactive	
CN(Cc1cccc2ccccc12)Cc1cccc2ccccc12		inactive: 17.1% [at 11.4 µM]
